Some of these densities may be calculated back from excess volumes.
Experiment: xn = mol fraction of the nth substance listed
Details: 100 kPa

CCCC[n+]1ccn(C)c1.O=[N+]([O-])[O-] + O
mass density [kg/m3]
Details | 292 K | 302 K | 312 K | 322 K | 332 K | 342 K
x2 = 0 | 1157.3 | 1150.8 | 1144.5 | 1138.2 | 1132 | 1126
x2 = 0.1305 | 1154.7 | 1148.1 | 1141.7 | – | 1129.2 | 1123.1
x2 = 0.1946 | – | – | 1139.9 | – | 1127.4 | –
x2 = 0.2775 | 1150 | 1143.2 | 1136.9 | 1130.5 | – | 1118.1

C[n+]1ccn(CCCO)c1.O=[N+]([O-])[O-] + O
mass density [kg/m3]
Details | 292 K | 302 K | 312 K | 322 K | 332 K | 342 K
x2 = 0 | 1273.4 | – | 1260.4 | 1254.4 | 1248.6 | 1242.7
x2 = 0.1008 | 1270.3 | 1263.7 | 1257.2 | 1251.1 | 1245 | –
x2 = 0.1462 | 1268.3 | 1261.6 | 1255.3 | 1249 | 1242.8 | 1236.9
x2 = 0.2121 | 1264.8 | – | 1251.6 | 1245.5 | 1239.4 | –
x2 = 0.2931 | – | 1253.3 | – | 1240.8 | 1234.8 | 1228.7
